Assay results as given in the RNAGym collection of RNA variant scans (doi:10.7554/elife.90254).
The source gives no read counts; variants with many changes may rest on few reads.

B1: OR4K15 (parent)
chain: GUUAACGGUCAUAGGCCAUGGAAACUAGGAGCACCAUUUCGCUGCCAGUGAAGAAAUGAACAAAGAAAAUCUGGGCCAGGCAGGCAUCAAAAGAAAUAGUCUUGCGCUCAACCAGAAAGUCUGUAAUCAUUUUAAGGGUA

Variants of: B1
Test: self-cleavage, relative activity (ratio to wild type); higher = more cleavage; in vitro, sequencing; the parent is a self-cleaving ribozyme

| Variant | self-cleavage |
| --- | --- |
| A47U A63G A111G | 0.01 |
| U43C G79A U97G | 0.12 |
| G44A U108C U131C | 0 |
| U49C A52G G106U U131A | 0.03 |
| A47U A69G A98G | 0.27 |
| U49C A59G A66G U87C | 0.92 |
| A47U A52G U127C U130A | 0.17 |
| C46U A64G A82G A89G | 0.85 |
| U49C A90G U102C | 2.04 |
| A47U G83U A92G | 0.37 |
| A47G A67C A82U A125G A134G | 0.04 |
| U49A A64G U103C | 1.31 |
| U49C A66G U87C A94G U120C | 1.89 |
| A47G A55G A66G | 0.47 |
| A47U A54G G79A A89G | 0.22 |
| A47G A90G A118G U130C | 0.06 |
| U49A A95G U108C | 0.01 |
| A47G A68U U72A A95G A116G U122C | 0.05 |
| U49A A68G U122C A125G | 0.27 |
| U43C A86U U108C | 0.02 |
| U43C U87A A126U | 0.94 |

| Variant | self-cleavage |
| --- | --- |
| U49C A54G A86G A92G U108C U122C | 0 |
| A47G G84A U120C | 1.56 |
| U43C A69G U72A | 0.45 |
| U49A A52G A59G A114U G115U | 0.01 |
| A47G A60G A116G | 0.12 |
| C45A A116G U124C U127C | 0.15 |
| U43C A62G C128A | 1.22 |
| U43G A51G U72C U124A | 0.28 |
| U49C A55G U102C A116G A129G | 0.66 |
| A47G A60G G73A A126G | 0.03 |
| U49C A78U A86U A129C U130C | 0.07 |
| U49C U72G U127C | 0.19 |
| U49A C61U A117G U133A | 1.76 |
| C46A U72C A126U | 0.32 |
| U49C A96G U122C | 1.79 |
| A47G U87G U108C | 0.01 |
| A47U A118G U132C G137U | 0.71 |
| U49C A56G A114G | 0.16 |
| A47G A54G U100A A125G | 0 |
| U43C C45G A125G A135U | 0.27 |
| A47G G65A A116G | 0.15 |

| Variant | self-cleavage |
| --- | --- |
| A47G A56G A62G A90G A91G U100A A134G | 0.1 |
| U43G G48A A62G U87C | 1.32 |
| U49A A55G A63G A90G | 0.73 |
| U49C A60U A95G A96G | 2.09 |
| G44A A60G A86G | 0.87 |
| U49A U108C U127C G136U | 0 |
| U49A G53U A78G U102C | 0.28 |
| A47G A52U U87A U100C | 1.55 |
| U43C A67U C88U A92U U103C | 1.15 |
| A47C A86G A90G | 0.59 |
| A47G A91G G115A A116G A118G | 0 |
| U49C A51G G65A A90G A96G A134G | 0.8 |
| U49C A94G U108C | 0.01 |
| A47G A89G A95G A98G | 0.99 |
| U43C A114G A125G | 0.04 |
| U43G A51G A63G A78U | 0.82 |
| U49C A78G A94G | 0.15 |
| U43C A110U U124C | 0.62 |
| U49C A68G A116G | 0.52 |
| U49C A62G A110G | 0.07 |
| U49C A89G A96U | 1.51 |

| Variant | self-cleavage |
| --- | --- |
| U49A G74A A91G | 0.16 |
| U43C A62U U87C U132C | 0.63 |
| U49C A52G A129U | 0.83 |
| A47U U49A A52G A63U U102C U132A | 1.49 |
| U43C A94G A117G | 2.65 |
| A47G U108A U130C | 0 |
| U49C A68G U72A U87C A129G | 0.1 |
| A47G A62G A67G A78G C88U | 0.13 |
| U43C U131C A140G | 1.15 |
| A47G A51G A55G U120C U130A | 0.4 |
| U49C A52G U122A | 0.84 |
| U49C A64G A92U A117G | 1.9 |
| U49C A64G A129G U132C | 0.6 |
| U43C A89U U100C U120C | 2.87 |
| A47U A56G A67G A98G | 0.06 |
| U43C A67G A96G | 2.19 |
| C46U A52G U87C | 1.6 |
| A47U A92U U108A | 0.04 |
| A47U G104U A114G | 0.02 |
| A47G U49C A54C A59G A68G A126G | 0.17 |
| U43C A62G A118G | 1.06 |
